Measured values reported in PubChem BioAssay AID1671193 (National Center for Advancing Translational Sciences (NCATS), 2021).
Hit rate of the full screen: of about 150,000 compounds, about 180 (0.12%) were called active. Inconclusive results, whose numbers are uncertain, are shown with a selection of clear calls. The call rests on the fitted dose curve; in most records, active means well fitted cell-killing curve with a large enough effect; inconclusive means small, poorly fitted or top-dose-only effect, or effect the other way; inactive means flat fitted curve, though single readings scatter. Potencies beside an inconclusive call are fits to weak or partial responses and may not hold up.

Experiment: GF-AFC viability counterscreen for inhibitors of alpha-synuclein gene (SNCA) expression; further: nearly all actives have a fitted effect of over 30% in size
Conditions: HEK-293-SNCA-luc viability, GF-AFC fluorescence, 24 h; series mostly up to 57.1 µM
Method in brief: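 HEK-293-SNCA-luc cells (1500/well) plated 24 h, then exposed 24 h to a dilution series; GF-AFC added 30 min at 37C, fluorescence 405/540 nm; normalised to medium-only and DMSO wells, Hill fit.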
Potency means the concentration at half of the fitted maximal effect; tags describe the fitted curve by direction and shape.

Row | SMILES | Potency
1 | COc1ccc(CN2Cc3cc(NC(=O)Cc4ccccc4)ccc3OC(C)C2=O)cc1 (stereo unspecified) | inactive
2 | Cc1ccc(-n2ncc(C(=O)NCCN3CCc4ccccc4C3)c2C2CCN(C(=O)OC(C)(C)C)CC2)cc1 | inconclusive: 39.8 µM [cytotoxic, single point]
3 | COc1ccc(C2=NOC3(CCN([S+](=O)([O-])c4cccc(OC)c4)C3)C2)cc1 (stereo unspecified) | inactive
4 | Cc1cn2nc(C(=O)NCc3ccccc3C(F)(F)F)cc2c(N2CCCC2)n1 | inactive
5 | COc1cc(NS(C)(=O)=O)ccc1Nc1c2ccccc2nc2ccccc12 | inconclusive: 3.16 µM [cytotoxic, partial curve, poor fit]
6 | COc1ccccc1CNC(=O)CN1C(=O)COc2ccc(S(=O)(=O)N3CCCCC3)cc21 | inconclusive: 10 µM [cytotoxic, partial curve]
7 | Cc1ccc(F)cc1CN1CCOc2cc([S+](=O)([O-])N(C)C)ccc2C1 | inactive
8 | CCOC(=O)NC1(C(F)(F)F)NC(=O)N(c2ccc(C)c(C)c2)C1=O (stereo unspecified) | inconclusive: 6.31 µM [rising, full curve, poor fit]
9 | C=C1CCC2C(C)(C)CCCC2(C)C1CC/C(C)=C\CO (stereo unspecified) | inactive
10 | COc1ccc(CNC(=O)Cn2c(SCC(=O)Nc3ccc(C)c(C)c3)nc3ccccc32)cc1 | inconclusive: 25.1 µM [cytotoxic, single point]
11 | Cc1nn(-c2ccccc2[N+](=O)[O-])c(C)c1[C@@H]1C=C[C@@H](NC(=O)Nc2cccc(C#N)c2)C1 | inconclusive: 39.8 µM [cytotoxic, single point]
12 | CN(C(=O)c1cnc2n[nH]c(-c3ccccc3)c2n1)c1ccccc1 | inconclusive: 22.4 µM [cytotoxic, partial curve]
13 | CCCc1nc(C)cc(N2CCC(NCCc3ccc(Cl)cc3)CC2)n1 | inconclusive: 31.6 µM [cytotoxic, single point]
14 | O=C(c1ccc(F)cc1)N1Cc2[nH]cnc2C[C@H]1c1nc(-c2ccc3c(c2)OCO3)no1 | inactive
15 | O=C(NCCc1ccc(Cl)cc1)c1ccc2nnc(C3CCCC3)n2c1 | inconclusive: 28.2 µM [cytotoxic, single point]
16 | CC(=O)N1CCCc2cc(S(=O)(=O)N3CCC(C(=O)Nc4cccc(Cl)c4C)CC3)ccc21 | inconclusive: 0.562 µM [rising, full curve, poor fit]
17 | COCCCNc1oc(/C=C/c2cc(OC)c(OC)c(OC)c2)nc1C#N | inconclusive: 20 µM [rising, single point]
18 | COc1ccc(CNC(=O)[C@H]2O[C@H](CCN3CCN(c4ccccc4OC)CC3)CC[C@@H]2O)cc1 | inconclusive: 10 µM [cytotoxic, full curve, poor fit]
19 | CN1CCc2c(sc3c2C(=O)NC(c2ccc(OC(=O)c4ccc(C(C)(C)C)cc4)cc2)N3)C1 (stereo unspecified) | inconclusive: 3.16 µM [rising, full curve, poor fit]
20 | CCOc1ccc(C(=O)NCCn2cc(SCC(=O)Nc3ccc4c(c3)OCCO4)c3ccccc32)cc1 | inconclusive: 35.5 µM [cytotoxic, single point]
21 | Cc1cccc(Cn2c(SCc3ccc(C(=O)NCCc4ccccc4)cc3)nc3ccncc32)c1 | inconclusive: 22.4 µM [cytotoxic, partial curve, poor fit]

Row | SMILES | Potency
22 | COc1ccccc1Nc1ccnc(N2CCCC2C(=O)NCCCc2ccccc2)n1 (stereo unspecified) | inactive
23 | O=C(NCc1ccc(Cl)cc1)c1cccn2cncc12 | inconclusive: 7.94 µM [cytotoxic, single point]
24 | CN1CCC(Cc2ccc(C(=O)N3CCCC3)cc2)CC1 | inactive
25 | COc1ccc(-c2nc(C(=O)N3CCN(c4ncccn4)CC3)n3ccccc23)cc1 | inactive
26 | COc1ccc(-c2cc(N3CCCC(NC(=O)c4ccc(OC)c(F)c4)C3)n[nH]2)cc1 (stereo unspecified) | inconclusive: 39.8 µM [cytotoxic, single point]
27 | O=C(NCCN1CCOCC1)c1cn2cc(-c3ccc(C(F)(F)F)cc3)sc2n1 | inactive
28 | O=C([C@H]1CCCN1C(=O)c1ccc(Cl)nc1)N1CCCC(c2nc3ccncc3[nH]2)C1 (stereo partly specified) | inactive
29 | O=C(NC1CCCN(c2cc(-c3ccc(F)cc3)[nH]n2)C1)c1ccc(C(F)(F)F)cc1 (stereo unspecified) | inactive
30 | COc1ccc(C(=O)NC2CCN(c3cnn(C)c(=O)c3)CC2)c(OC)n1 | inconclusive: 10 µM [cytotoxic, partial curve]
31 | CC(C)(C)c1cc(C[C@@H]2C[C@H](NCc3ccccn3)C2(C)C)no1 | inactive
32 | COc1ccc(CNC(=O)C[C@@H]2C[C@H]3O[C@H](CNCc4cnccc4C(F)(F)F)[C@@H](O)[C@H]3O2)cc1 | inactive
33 | Cc1nn(Cc2ccccc2)c(C)c1[C@@H]1C=C[C@@H](NC(=O)c2ccc(F)c(Cl)c2)C1 | inconclusive: 31.6 µM [cytotoxic, single point]
34 | CCOc1ccc(-c2cc3nc(C4CCN(C(=O)OC(C)(C)C)CC4)c(C(=O)Nc4ccc(C(=O)OC)cc4)cn3n2)cc1 | inconclusive: 3.16 µM [rising, single point]
35 | CC(=O)N1CCC(N2CCC(Cc3ccc(CCC(=O)N(C)C)cc3)CC2)CC1 | inconclusive: 7.94 µM [cytotoxic, full curve, poor fit]
36 | COc1ccc2[nH]c(C[C@@H]3C[C@@H](C(C)C)[C@H](CNCc4ccccc4O)C=C3C)nc2n1 | inconclusive: 56.2 µM [cytotoxic, single point]
37 | COc1cccc(Cn2c(=O)c(C)nc3cnc(OCc4ccccc4)nc32)c1 | inconclusive: 1.41 µM [cytotoxic, full curve, poor fit]
38 | COCCn1c(=O)c(-c2cccs2)nc2cnc(Oc3cccc(Cl)c3)nc21 | inconclusive: 22.4 µM [rising, partial curve]
39 | CCc1ccc(CNC(=O)c2nn(-c3ccc(C)c(C)c3)nc2CO)cc1 | inconclusive: 10 µM [rising, full curve, poor fit]
40 | COc1ccc(C(C)NC(=O)c2ccc(Cn3ccn4nc5c(c4c3=O)CCCC5)cc2)cc1OC (stereo unspecified) | inconclusive: 14.1 µM [cytotoxic, partial curve]
41 | Cc1ccc(-c2ccc3nnc(CNC(=O)c4ccc5c(c4)OCO5)n3n2)cc1 | inactive
42 | CC1CCN(C(=O)C[C@@H]2c3nc(NC(=O)c4c(F)cccc4F)sc3C[C@@H]3[C@](C)(CO)[C@H](O)CC[C@]32C)CC1 | inconclusive: 22.4 µM [cytotoxic, partial curve]

Row | SMILES | Potency
43 | Cc1ccc(C(=O)NC2CCN(c3nc4ncccc4o3)C2)cc1 (stereo unspecified) | inactive
44 | CCn1c2ccccc2c2cc(NC(=O)COc3cc(C)c(Cl)c(C)c3)ccc21 | inconclusive: 0.282 µM [rising, full curve, poor fit]
45 | COC(=O)[C@@H]1Cc2ncn(Cc3ccc(Cl)cc3)c2CN1CCCc1ccccc1 | inconclusive: 8.91 µM [cytotoxic, partial curve]
46 | CCC(=O)N(C1CCOCC1)C1CCN(Cc2cccc(Cl)c2F)CC1 | inactive
47 | CCOc1ccc(CCNC(=O)C2CCCN(c3nnc(C)c4c(C)n(-c5ccccc5)nc34)C2)cc1 (stereo unspecified) | inconclusive: 1.78 µM [cytotoxic, full curve, poor fit]
48 | CCOC(=O)c1c(C)n(-c2ccccc2)c2ccc(OC(=O)c3ccccc3Cl)cc12 | inconclusive: 0.251 µM [rising, full curve, poor fit]
49 | CCN1CCN(Cc2cc(C)cc(CN(C)Cc3ncc(C)[nH]3)c2C)CC1 | inactive
50 | COc1ccc(-c2nc(C3CC3)nc3c2CCN(C(=O)c2ccc(C(F)(F)F)cc2)CC3)cc1 | inconclusive: 15.8 µM [cytotoxic, single point]
51 | Cc1cc(C)n(CCC(=O)N2CCCC(c3nnnn3-c3ccccc3)C2)n1 (stereo unspecified) | inactive
52 | COc1ccc(-c2[nH]nc3ncc(C(=O)N(C)Cc4ccccc4)nc23)c(C)c1 | inconclusive: 8.91 µM [cytotoxic, partial curve]
53 | Cc1ccc(C2CCN(C(=O)c3cnn(-c4ccccc4Cl)c3C3CCN(C(=O)OC(C)(C)C)CC3)C2)cc1 (stereo unspecified) | inconclusive: 39.8 µM [cytotoxic, single point]
54 | O=C(NCc1ccccc1)c1ccccc1OC1CN(Cc2ccc(F)cc2)C1 | inconclusive: 14.1 µM [cytotoxic, single point]
55 | O=C(c1ccc2c(c1)OCO2)c1cn(Cc2ccc(F)cc2)c2ccccc2c1=O | inconclusive: 31.6 µM [cytotoxic, partial curve, poor fit]
56 | OC1(c2ccc(Cl)c(C(F)(F)F)c2)CCN(CCCC(c2ccc(F)cc2)c2ccc(F)cc2)CC1 | inconclusive: 29.9 µM [cytotoxic, partial curve, poor fit]
57 | COc1ccc(-c2nc(C)nc3c2CN(C(=O)c2ccccc2F)CC3)cc1 | inconclusive: 5.01 µM [cytotoxic, single point]
58 | Cn1c(=O)c2sccc2n2c(CCCC(=O)Nc3ccc(F)cc3F)nnc12 | inconclusive: 0.178 µM [cytotoxic, full curve, poor fit]
59 | Cc1ccc(C)c(N2CCN(C(=O)c3cccc(-n4c(C)nc5cccnc54)c3)CC2)c1 | inconclusive: 28.2 µM [cytotoxic, single point]
60 | CN(C(=O)CSc1cn(CC(=O)N2CCCCCC2)c2ccccc12)c1ccccc1 | inconclusive: 31.6 µM [cytotoxic, single point]
61 | CO[C@H]1C[C@@H]2CC[C@@H](C)[C@@](O)(O2)C(=O)C(=O)N2CCCC[C@@H]2C(=O)O[C@H]([C@H](C)C[C@@H]2CC[C@H](OC(=O)C(C)(CO)CO)[C@H](OC)C2)CC(=O)[C@H](C)C=C(C)[C@@H](O)[C@@H](OC)C(=O)[C@H](C)C[C@H](C)C=CC=CC=C1C | inconclusive: 30.4 µM [cytotoxic, single point]
